# ChEMBL document CHEMBL3826960, “Robust design of some selective matrix metalloproteinase-2 inhibitors over matrix metalloproteinase-9 through in silico/fragment-based lead identification and de novo lead modification: Syntheses and biological assays” (Bioorg Med Chem, 2016)
# Biological target: Macrophage metalloelastase (Homo sapiens, UniProt P39900)
# Sequence (P39900 whole entry): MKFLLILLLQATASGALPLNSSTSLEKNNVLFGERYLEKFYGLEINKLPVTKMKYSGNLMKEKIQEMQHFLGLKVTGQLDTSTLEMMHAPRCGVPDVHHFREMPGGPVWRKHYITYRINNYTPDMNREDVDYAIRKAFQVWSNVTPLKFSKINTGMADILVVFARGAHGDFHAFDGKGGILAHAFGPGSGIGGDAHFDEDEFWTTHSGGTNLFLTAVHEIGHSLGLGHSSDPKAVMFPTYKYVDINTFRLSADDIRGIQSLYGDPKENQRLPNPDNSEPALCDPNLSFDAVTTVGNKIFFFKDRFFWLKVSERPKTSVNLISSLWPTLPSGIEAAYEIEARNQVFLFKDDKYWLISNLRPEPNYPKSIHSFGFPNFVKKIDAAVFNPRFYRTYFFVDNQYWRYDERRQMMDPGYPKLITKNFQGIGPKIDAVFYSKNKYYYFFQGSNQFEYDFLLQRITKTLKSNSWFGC
row,Structure (SMILES),IC50 [nM]
1,CCCNC(=O)CC[C@H](NS(=O)(=O)c1ccc(-c2ccccc2)cc1)C(=O)O,178

# Biological target: 72 kDa type IV collagenase (Homo sapiens, UniProt P08253)
# Sequence (P08253 whole entry): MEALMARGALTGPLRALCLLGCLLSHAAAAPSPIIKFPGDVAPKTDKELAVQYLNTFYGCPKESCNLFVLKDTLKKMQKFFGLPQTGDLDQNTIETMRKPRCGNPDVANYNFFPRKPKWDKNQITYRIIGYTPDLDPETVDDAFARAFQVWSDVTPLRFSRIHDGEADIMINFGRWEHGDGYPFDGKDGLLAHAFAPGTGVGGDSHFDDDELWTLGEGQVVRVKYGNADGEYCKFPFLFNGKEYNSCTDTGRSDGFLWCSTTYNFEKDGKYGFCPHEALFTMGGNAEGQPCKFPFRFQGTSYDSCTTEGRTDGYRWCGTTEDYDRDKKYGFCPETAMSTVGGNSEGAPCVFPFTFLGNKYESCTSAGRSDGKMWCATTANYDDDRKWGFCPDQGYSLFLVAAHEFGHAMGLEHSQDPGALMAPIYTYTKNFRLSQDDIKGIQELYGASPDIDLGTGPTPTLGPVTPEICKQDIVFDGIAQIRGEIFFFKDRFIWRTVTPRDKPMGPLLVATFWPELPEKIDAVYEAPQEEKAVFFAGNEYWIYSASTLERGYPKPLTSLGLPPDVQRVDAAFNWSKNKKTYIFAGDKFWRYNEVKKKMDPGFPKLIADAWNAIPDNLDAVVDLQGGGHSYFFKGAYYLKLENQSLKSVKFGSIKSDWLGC
row,Structure (SMILES),IC50 [nM]
1,COC(NC(=O)C(NC(=O)C(CCCc1ccc(-c2ccccc2)c(C)c1)CC(=O)O)C(C)(C)C)c1ccccc1 (stereo not drawn),34200
2,O=C(CC[C@H](NS(=O)(=O)c1ccc(-c2ccc(Br)cc2)cc1)C(=O)O)NC1CCCCC1,672
3,CNC(=O)C(Cc1ccc(OC)cc1)NC(=O)C(CC(=O)NO)CC(C)C (stereo not drawn),6
4,O=C(CC[C@H](NS(=O)(=O)c1ccc(-c2ccccc2)cc1)C(=O)O)NC1CCCCC1,30
5,CCCCCNC(=O)CC[C@H](NS(=O)(=O)c1ccc(-c2ccccc2)cc1)C(=O)O,41
6,NC(=O)CC[C@H](NS(=O)(=O)c1ccc(-c2ccccc2)cc1)C(=O)O,885
7,O=C(CC[C@H](NS(=O)(=O)c1ccc(-c2ccccc2)cc1)C(=O)O)NCc1ccc([N+](=O)[O-])cc1,291
8,O=C(CC[C@H](NS(=O)(=O)c1ccc(-c2ccccc2)cc1)C(=O)O)NCc1ccc(Cl)c(Cl)c1,806
9,CNC(=O)C(NC(=O)C(CCc1ccc(Cl)cc1)CP(=O)(O)Cc1ccc(Cc2ccccc2)cc1)C(C)(C)C (stereo not drawn),2.6
10,CNC(=O)C(NC(=O)C(CCc1ccccc1)CP(=O)(O)Cc1ccc(Cc2ccccc2)cc1)C(C)(C)C (stereo not drawn),10
11,CC(C)(C)NC(=O)CC[C@H](NS(=O)(=O)c1ccc(-c2ccccc2)cc1)C(=O)O,186
12,O=C(CC[C@H](NS(=O)(=O)c1ccc(-c2ccccc2)cc1)C(=O)O)NCc1ccccc1,24
13,O=C(NO)[C@@]1(NS(=O)(=O)c2ccc(Oc3ccc(F)cc3)cc2)C[C@H]2CC[C@@H](C1)O2,0.3
14,CNC(=O)CC[C@H](NS(=O)(=O)c1ccc(-c2ccccc2)cc1)C(=O)O,843
15,O=C(CC[C@H](NS(=O)(=O)c1ccc(-c2ccccc2)cc1)C(=O)O)NCc1cc(C(F)(F)F)cc(C(F)(F)F)c1,51
16,O=C(CC[C@H](NS(=O)(=O)c1ccc(-c2ccccc2)cc1)C(=O)O)NCc1ccc(Cl)cc1,263

row,Structure (SMILES),IC50 [nM]
1,O=C(CC[C@H](NS(=O)(=O)c1ccc(-c2ccccc2)cc1)C(=O)O)Nc1ccccc1,79
2,CCCCNC(=O)CC[C@H](NS(=O)(=O)c1ccc(-c2ccccc2)cc1)C(=O)O,44.6
3,O=C(CC[C@H](NS(=O)(=O)c1ccc(-c2ccccc2)cc1)C(=O)O)NCc1ccccc1Cl,31
4,O=C(CC[C@H](NS(=O)(=O)c1ccc(-c2ccc(Br)cc2)cc1)C(=O)O)NCc1ccccc1,419
5,CCCNC(=O)CC[C@H](NS(=O)(=O)c1ccc(-c2ccccc2)cc1)C(=O)O,177
6,O=C(CC[C@H](NS(=O)(=O)c1ccc(C2CCCCC2)cc1)C(=O)O)NCc1ccccc1,> 500
7,O=C(CC[C@H](NS(=O)(=O)c1ccc(-c2ccccc2)cc1)C(=O)O)NCCc1ccccc1,123
8,O=C(CC[C@H](NS(=O)(=O)c1ccc(-c2ccccc2)cc1)C(=O)O)NCc1ccc(F)cc1,76
9,CC(C)CNC(=O)CC[C@H](NS(=O)(=O)c1ccc(-c2ccccc2)cc1)C(=O)O,98
10,CCCCCNC(=O)CC[C@H](NS(=O)(=O)c1ccc(C2CCCCC2)cc1)C(=O)O,> 500
11,CCNC(=O)CC[C@H](NS(=O)(=O)c1ccc(-c2ccccc2)cc1)C(=O)O,203
12,CC(C)NC(=O)CC[C@H](NS(=O)(=O)c1ccc(-c2ccccc2)cc1)C(=O)O,208
13,COc1ccc(CNC(=O)CC[C@H](NS(=O)(=O)c2ccc(-c3ccccc3)cc2)C(=O)O)cc1,193
14,CCCCCNC(=O)CC[C@H](NS(=O)(=O)c1ccc(-c2ccc(Br)cc2)cc1)C(=O)O,472
15,CNC(=O)C(NC(=O)C(CCCc1ccc(-c2ccccc2)c(C(C)(C)C)c1)CC(=O)NO)C(C)(C)C (stereo not drawn),86
16,CCCCCCNC(=O)CC[C@H](NS(=O)(=O)c1ccc(-c2ccccc2)cc1)C(=O)O,103
